Results taken from the RNAGym collection of RNA variant scans (doi:10.7554/elife.90254).
The source gives no read counts; variants with many changes may rest on few reads.

B1: OR4K15 (parent)
chain: GUUAACGGUCAUAGGCCAUGGAAACUAGGAGCACCAUUUCGCUGCCAGUGAAGAAAUGAACAAAGAAAAUCUGGGCCAGGCAGGCAUCAAAAGAAAUAGUCUUGCGCUCAACCAGAAAGUCUGUAAUCAUUUUAAGGGUA

Variants of: B1
Experiment: self-cleavage, relative activity (ratio to wild type); higher = more cleavage; in vitro, sequencing; the parent is a self-cleaving ribozyme

| Variant | self-cleavage |
| --- | --- |
| U72A U87G A90G | 0.18 |
| A23G G74U A110G | 0.04 |
| A51G A52G C71A | 0.21 |
| G28A A67G A116U U132C | 0.21 |
| U9C G84A A92G | 1.66 |
| U19C A67G A95G A116G | 1.62 |
| A24G A51U A59C U120A U130C | 0.54 |
| A5G A18G C40A A96C | 1.02 |
| A55G A92G A114G | 0.5 |
| U26C A52G A96U A117G A126G U130C | 0.71 |
| U26C G80C U102C A114G | 0.14 |
| U38C A62G U87C A118G | 1 |
| A22C U38C A82G | 0.32 |
| U9A A66U A95G U97C C113U | 0.02 |
| A13G A30G U139A | 0.96 |
| A23U A27G A55G A66G | 0.98 |
| U38C A59G U70A U100A A111G | 0 |
| U38A A114G A118G | 0.14 |
| A36U U43A A116G | 1.25 |
| A52G A56G A129C | 0.78 |
| U12A U37C U131C | 1.18 |
| A18U U124A A125G | 0.9 |
| A23G A66G A89U U108A | 0.08 |
| A59G A69G A86G | 1 |

| Variant | self-cleavage |
| --- | --- |
| A11G A36G U127G | 0.99 |
| U49C A64G U87C A92G A134G | 0.88 |
| C6U A67G A110U | 0.55 |
| U37G A51G A92G | 1.73 |
| A33G U57G A140G | 0.65 |
| U12C U102C A110G U127G | 0.09 |
| U49C A51G A67G | 1.7 |
| U39C A52U A67G U72G A110C | 0.1 |
| A67G G79U A114G | 0.03 |
| A22U C45U G115U | 0.35 |
| A5G A66U U100A A110G | 0.06 |
| A55G A60G A64G A94G | 0.68 |
| A18G U26A A98G U103C A140G | 0.06 |
| U39C A51G A90U A111G | 0.04 |
| U3C U70G A92G A116G | 0.55 |
| A68G A116U U127G | 0.36 |
| A22G A36G U87C U131C A140G | 1.26 |
| A51G A68G U120G | 2.07 |
| A4G A11G U131C | 0.79 |
| A64G A92G A114G | 0.54 |
| A55U A78U G106A A110G U122C | 0.01 |
| G1A C107U U139C | 0 |
| A24C A36U A60G A116G U122C C128A | 0.49 |
| A11G A30G U39C | 0.43 |

| Variant | self-cleavage |
| --- | --- |
| A60U A66G C81A | 0.5 |
| A60G U122C A125G | 0.35 |
| A27G A30G A67G A95G A125U | 1.62 |
| A47G A52G A59G | 0.94 |
| U2C A24U U49A A135C | 1.29 |
| G14U A18U A96G | 1.6 |
| G15A U38G C45U A126G | 0.79 |
| U37C A67U C77U | 2.01 |
| A30G A51C U102A | 1.04 |
| U19A A69G A94G | 0.77 |
| A4G A18G A56G A94G A117U | 1.45 |
| C32A A64U A68G A78C G79C | 0.12 |
| U9C U19A A68C A91G A92G A118G | 1.16 |
| A96G U102C A116U | 0.3 |
| A22G A95G U108C | 0.01 |
| U9C U19G A30G A78U A91G U100G A118U | 0.33 |
| U43G U102C U122C | 2.16 |
| U3C A51G A54G A55U A64U | 1.61 |
| C32U A96G A135U | 0.62 |
| U9C U57G A98G A116G | 0.47 |
| A11G U37C A60G U100C | 0.82 |
| U38C A78U U87C U103C A114G | 0.06 |
| U2C U49C U133C | 1.02 |
| A22G A94G U130C U131C | 1.43 |

| Variant | self-cleavage |
| --- | --- |
| C6U A24C A60G A94G | 1.6 |
| A62G A68G U120A | 2.63 |
| U37C A51G A63G U122C A125U | 0.2 |
| A30G A56G U131C | 0.65 |
| U37A A52G A68G A135G | 2.81 |
| A24U A78U U103C A110G A134G | 0.01 |
| U9A C40U U43A U57C A126G | 1.3 |
| U70C A92G U120C | 1.57 |
| U43A A55G A59U A111G | 0.02 |
| A33G U38C U72A A96U | 0.19 |
| A24G G79A A98U | 0.14 |
| A23G G28A G75A A92G | 0.15 |
| U9G U39A A89G U108G | 0.04 |
| A52G A55G U108C U122G A126U | 0 |
| U26C A114C U132C | 0.02 |
| A24G U49A A89G | 1.63 |
| U2C A33C A56G A60U U103A | 0.5 |
| A86U A90G A116G A125G U132C | 0.02 |
| A51G A52G A111U | 0.14 |
| A51G A52G G115A | 0.04 |
| A51G A94G A118G | 1.2 |
| A54G A66G A95G | 2.27 |
| A55G A90C A92G U108C U127C | 0.01 |
| C6U A33U A95G U132C | 1.09 |

| Variant | self-cleavage |
| --- | --- |
| G65U A96G C105U | 0.12 |
| A22G A23G A54U G137A A140G | 0.66 |
| C40U A69G A98U | 2.31 |
| A94G U103C A110G | 0.15 |
| U39C U43C G75A A94G A96G | 0.06 |
| U26A U70A U131C | 1.15 |
| A59G A95G A118U | 1.27 |
| A55G A64G A90G U102C | 1.89 |
| U37C U38C A78G | 0.23 |
| C71U A126G U127C | 0.08 |
| U12A A13G U39C A62G A63G U139C | 1.15 |
| A78G G79A A96G U127C | 0.06 |
| A51U U87C A114U U139C | 0.04 |
| U38C U39A U124C U130C | 0.69 |
| A18U A23G G41A A59G A63G U108C | 0.15 |
| A22G A30G U70C | 1.19 |
| A54G A55G U72A G138A | 0.24 |
| A23G A89G A111G U120C U124C | 0.01 |
| A18U A60G U131C | 1.18 |
| A33U A47G A118G | 0.75 |
| G7A U38C U87C | 0.19 |
| A89G A110C U131C | 0.13 |
| A51C A66G U130C | 0.58 |
| U26A U43A A51U A82G | 0.52 |

| Variant | self-cleavage |
| --- | --- |
| U72C A111G A117G U122A | 0 |
| A52G A62G A66G A86U | 1.71 |
| A24G C85A U97C | 0.71 |
| A51G U70C A82G | 0.63 |
| U38C U43C U122C | 1.29 |
| A54G A78G A98U | 0.29 |
| U57C A86G A110U U132A | 0.95 |
| U3C U37C U38C A96G | 0.96 |
| U9C A60G C77A | 1.38 |
| A78U A86G A114G | 0.01 |
| A51U A110G A129G | 0.22 |
| A51G A56G A69U | 0.85 |
| U49A A82G A126G | 0.28 |
| U3C U87C A91G U103C | 0.3 |
| A33G A59G A96G | 1.21 |
| A22U U43C U120A | 1.32 |
| A23G A59G U130C | 1.33 |
| A68G A69G U130C | 0.19 |
| A63G A89U U120A | 2.44 |
| U3C A51U U72C U130C | 0.06 |
| A59G U87A U122C | 0.78 |
| A52G A63U A91G | 0.96 |
| U9C C85U U100C | 1.72 |
| A52G A54C A86G | 1.46 |

| Variant | self-cleavage |
| --- | --- |
| A18U C85U A89G U120C | 0.27 |
| A23G A52G A110U | 1.06 |
| A30U A36G A117G U132A | 0.82 |
| A30G G44A U72C A90G A129C | 0.11 |
| A30U A69G A82G | 0.49 |
| A60G G83A A125U | 2.35 |
| A36G U37C A111U | 0.07 |
| A30G A36U U57C | 0.95 |
| U9C A52G A66G A68G | 1.02 |
| U57A A90G U108C | 0 |
| U3C A27U C40U U100A U102C | 0.7 |
| A5G U87A A110U | 1.43 |
| A30G A59G U122C A129G | 1.49 |
| A52G A60U A95G U108C | 0.01 |
| A30G U43C A59U U120C | 1.12 |
| A4G A56G A63G U102C A116G | 1.87 |
| U3C U57C A86G A126G U132C | 0.34 |
| A66G U124C A126G U130A | 0.66 |
| U3C A11C U19C A22G A24G A78U U120C | 0 |
| A59G A63G G80A | 0.18 |
| A92G A96G U131C U132C | 1.37 |
| A62C A116G U122C | 0.46 |
| A30G A59G U131C | 2.15 |
